# Assay results from PubChem BioAssay AID1508642 (National Center for Advancing Translational Sciences (NCATS), 2021).
# Screen size: about 43,000 compounds; about 200 (0.47%) were called active. Another 12% or so got no clear call; they are omitted. Calls come from the whole dose curve; as a rule, active = well fitted cell-killing curve with a large enough effect; inconclusive = small, poorly fitted or top-dose-only effect, or effect the other way; inactive = flat fitted curve, though single readings scatter. Some of the results follow.
# Test: Cell viability qHTS assay in S16 Pmp22-F2sN cells; note: nearly all actives have a fitted effect of over 65% in size
# Details: S16 Pmp22-F2sN Schwann cells viability, CellTiter-Glo, 24 h; series mostly up to 57.5 µM; activity change, negative = cytotoxicity: at the top concentration
# In short: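 Viability was measured by CellTiter-Glo luminescence (15 min, room temperature). This followed 24 h at 37 °C of compound exposure (23 nL pin transfer) in S16 Pmp22-F2sN Schwann cells, 500-1,000 per well.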
# % is set by controls: 0 for no effect and ±100 for the full control effect.
row,SMILES,"activity change, negative = cytotoxicity"
1,O=C(Cn1ncc2c3ccccc3n(Cc3ccccc3F)c2c1=O)N1CCCCC1,inactive: -1.87%
2,CC(C)CN(CCCNC(=O)CN1N=C(c2ccccc2)CCC1=O)CC(C)C,inactive: 10.8%
3,CCOc1ccc(CCNC(=O)c2[nH]c3cc(OC)ccc3c2Sc2ccccc2)cc1OCC,inactive: 2.02%
4,Cc1cccn2c(=O)c3cc(C(=O)N(Cc4ccccc4)C(C)C)sc3nc12,inactive: -17.4%
5,Cc1cccc(C(=O)Nc2nc(-c3nnn(-c4cc(F)ccc4F)c3C)ns2)c1,inactive: 24.4%
6,Cc1c(C(=O)NCCc2ccc(S(N)(=O)=O)cc2)sc2nc3n(c(=O)c12)CCCC3,inactive: 5.31%
7,O=S(=O)(NCc1ccccc1Cl)c1ccc(N2CCCCS2(=O)=O)cc1,inactive: -13.6%
8,CCc1ccccc1NC(=O)CSc1nc2c(oc3ccccc32)c(=O)n1-c1ccccc1F,inactive: -7.89%
9,Cc1ccc2ccc3cc(C(=O)N4CCN(c5ccccc5)CC4)nc3c2[nH]1,inactive: -4.11%
10,CC(=O)Nc1ccc(-c2nnc(SCC(=O)c3ccc([N+](=O)[O-])cc3)o2)cc1,inactive: 6.27%
11,Cc1ccc(NC(=O)C(=O)NCC(c2cccnc2)N2CCN(Cc3ccccc3)CC2)cc1 (stereo not drawn),inactive: -10.3%
12,CC1CCN(S(=O)(=O)c2ccc3c(c2)N(CC(=O)O)C(=O)CO3)CC1,inactive: -17.1%
13,Cc1cccc(Cn2c(C)c(CNC3CCCCC3)c(C(=O)O)c2C)c1,inactive: 26.8%
14,COc1ccc(-c2cc(C(F)(F)F)n3nc(C(=O)NCC45CC6CC(CC(C6)C4)C5)cc3n2)cc1OC,inactive: 10.5%
15,CCOC(=O)c1ccccc1NC(=O)N1CCOc2ccc(Cl)cc21,inactive: 0.0828%
16,Cc1cc(Cl)ccc1NC(=O)C1CCN(c2nnc(-n3c(C)ccc3C)s2)CC1,inactive: -0.843%
17,O=S(=O)(c1ccc(Cl)cc1)c1nnn2c1nc(N1CCCCC1)c1sccc12,inactive: 1.86%
18,COc1ccc(OC)c(S(=O)(=O)N2CC=C(c3c(C)n(CC(=O)N4CCCC4)c4ccccc34)CC2)c1,inactive: 4.62%
19,Cc1cn(C)c(CC(=O)N2CCN(c3ccccc3F)CC2)c1C(=O)O,inactive: -5.45%
20,COc1ccc(-c2nc3sc(CCNC(=O)c4ccccc4C)c(C)n3n2)cc1,inactive: -8.75%
21,Cc1cccc(NC(=O)N2CCC(CN3CCOCC3)CC2)c1C,inactive: 5.49%
22,Cc1ccc2c(c1)-c1c(c(C(=O)N3CCN(c4cc(Cl)ccc4C)CC3)nn1C)CS2,inactive: 13.7%
23,CC(CNC(=O)CCS(=O)(=O)c1ccc2c(c1)oc(=O)n2C)c1ccccc1 (stereo not drawn),inactive: 10.5%
24,Fc1ccccc1-n1ncc2c1ncn1nc(Cc3ccccc3)nc21,inactive: 20.5%

row,SMILES,"activity change, negative = cytotoxicity"
1,Cc1ccccc1NC(=O)CN(c1ccc(Cl)cc1Cl)S(=O)(=O)c1ccccc1,inactive: 5.47%
2,COC(=O)c1cccc(NC(=O)Nc2cc(C(=O)NCc3cccc(F)c3)ccc2N2CCCC2)c1,inactive: 13%
3,N#C/C(=C\c1c(Oc2ccc(Br)cc2)nc2ccccn2c1=O)c1nc2ccccc2s1,inactive: -4.02%
4,Cc1ccc(Cc2nc3ccccc3nc2SCC(=O)N2CCCCC2C)cc1 (stereo not drawn),inactive: -22.4%
5,O=C(CSc1nc(=O)n(Cc2cccnc2)c2c1CCC2)Nc1ccc(F)cc1F,inactive: -3.18%
6,Cc1nn(C(C)C(=O)NC2CCC(C)CC2)c(=O)c2cc3sccc3n12 (stereo not drawn),inactive: 2.46%
7,COc1ccccc1N1CCN(C(=O)c2cn(C)c3ccc(S(=O)(=O)N4CCOCC4)cc3c2=O)CC1,inactive: 3.33%
8,COc1ccc(Cl)cc1NC(=O)c1cc(C)nn1-c1ccccc1,inactive: -7.41%
9,CCOC(=O)c1c(NC(=O)c2cc(=O)c3ccc(C)cc3o2)sc(C)c1C,inactive: -1.11%
10,COc1cccc(N2CCN(S(=O)(=O)c3ccc4c(c3)CCCN4C(C)=O)CC2)c1,inactive: -1.03%
11,CC(=O)N1CCc2cc(Br)cc(S(=O)(=O)N3CCN(c4cccc(C)c4)C(C)C3)c21 (stereo not drawn),inactive: 19.2%
12,COc1ccc(N2CCN(C(=O)CS(=O)(=O)c3cccc4nsnc34)CC2)cc1,inactive: -1.52%
13,CCCCN1CCc2nc(N3CCN(C)CC3)ncc2C1,inactive: 8.8%
14,O=C(NCCc1csc(-c2cccnc2)n1)c1ccc(F)c(F)c1,inactive: 0.751%
15,CCOC(=O)c1c(S(=O)(=O)N2CCC(C(=O)N3CCN(c4cc(C)ccc4C)CC3)CC2)c(C)n(C)c1C,inactive: -10.2%
16,Cc1sc2c(c1C)c(=O)n(-c1ccc(Cl)cc1)c(=O)n2Cc1c(F)cccc1Cl,inactive: 3.62%
17,COc1cc(C2C(C(=O)Nc3ccccc3)=C(C)Nc3nc(SCc4ccccc4F)nn32)cc(OC)c1OC (stereo not drawn),inactive: -11.5%
18,CC1CCN(S(=O)(=O)c2cc(C(=O)Nc3ccc(Br)cc3F)n(C)c2)CC1,inactive: 8.08%
19,COC(=O)c1cc(NC(=O)CCc2c(C)nc3cc(-c4ccccc4)nn3c2C)cc(C(=O)OC)c1,inactive: 4.39%
20,Cc1ccc(-c2cc(C(=O)N3CCN(c4ccccc4)CC3)c3ccccc3n2)cc1C,inactive: -18.3%
21,COc1ccc(C)cc1NC(=O)Cn1cc(S(=O)(=O)Cc2ccccc2Cl)c2ccccc21,inactive: -20.8%
22,CCOc1cc2c(cc1OCC)C(c1c(F)cccc1Cl)CC(=O)N2 (stereo not drawn),inactive: 0.42%
23,CCc1ccccc1NC(=O)c1nc(-c2ccncc2)no1,inactive: 1.02%
24,Cc1cccc(NC(=O)Cn2c(C(F)(F)F)nc3ccccc32)c1C,inactive: 4.78%
